Data on seven molecules can be found in patent US20250041455A1 (Regeneron, published 2025).

This assay concerns the target T1, hmm.hTfRC (REGN2431) (human, UniProt P02786).
T1 construct: also called hmm.hTfR(C89-F763); His-myc-myc-hTFRC ecto
As to the kind of experiment: blocking ELISA; Hmm-hTFRC + supernatant on plate-bound holo-Tf. In general terms: ELISA stands for enzyme-linked immunosorbent assay.

T1 sequence (P02786 other isoform, or with tags, fused parts or gaps): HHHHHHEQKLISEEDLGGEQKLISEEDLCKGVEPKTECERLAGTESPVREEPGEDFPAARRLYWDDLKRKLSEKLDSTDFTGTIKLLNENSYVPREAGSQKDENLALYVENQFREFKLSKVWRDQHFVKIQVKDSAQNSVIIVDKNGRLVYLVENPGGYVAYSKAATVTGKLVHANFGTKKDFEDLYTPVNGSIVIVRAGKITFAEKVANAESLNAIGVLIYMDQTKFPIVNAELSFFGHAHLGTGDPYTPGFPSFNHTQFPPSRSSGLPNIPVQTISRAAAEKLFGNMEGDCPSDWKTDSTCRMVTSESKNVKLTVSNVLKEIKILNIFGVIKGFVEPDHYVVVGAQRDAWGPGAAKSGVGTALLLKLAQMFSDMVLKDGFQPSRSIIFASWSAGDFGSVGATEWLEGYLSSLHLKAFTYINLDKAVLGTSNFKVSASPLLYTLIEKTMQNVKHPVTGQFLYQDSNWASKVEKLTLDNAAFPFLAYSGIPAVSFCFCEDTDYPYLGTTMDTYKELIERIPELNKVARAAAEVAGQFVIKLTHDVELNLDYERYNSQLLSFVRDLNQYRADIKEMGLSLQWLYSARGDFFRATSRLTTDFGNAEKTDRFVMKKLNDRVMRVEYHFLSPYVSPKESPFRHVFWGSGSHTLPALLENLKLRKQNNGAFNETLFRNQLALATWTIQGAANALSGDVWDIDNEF

B1: 12843B scFv (VH-VK) (scFv)
chain: EVQLVESGGGLVQPGGSLRLSCAASGFTFNIFEMNWVRQAPGKGLEWISYISSRGTTTYYADSVRGRFTISRDNAKNSLYLQMNSLRAEDTAVYYCARDYEATIPFDFWGQGTLVTVSS[here about 100 residues without letters]
As for B1, the “% Blocking” value worked out at 17%.

B2: 12835B scFv (VH-VK) (scFv)
chain: EVQLVESGGGLIQPGGSLRLSCEASGFTFRNYEMNWVRQAPGKGLEWVSYISSSGNMKDYAESVKGRFTISRDNVKNSLQLQMNSLRVEDTAVYYCARDEFPYGMDVWGQGTTVTVSS[here about 100 residues without letters]
With B2, the “% Blocking” value worked out at 45%.

B3: 12841B scFv (VH-VK) (scFv)
chain: EVQLVESGGGLVQPGGSLRLSCAASGFTFSNYWMNWVRQAPGKGLEWVANIKEDGGKKLYVDSVKGRFTISRDNAKNSLFLQMNSLRAEDTAVYYCAREDTTLVVDYYYYGMDVWGQGTTVTVSS[here about 100 residues without letters]
As to B3, the “% Blocking” value was 10%.

B4: 12847B scFv (VH-VK) (scFv)
chain: EVQLVESGGGLVQPGRSLRLSCAASGFTFDDYAMNWVRQAPGKGLEWVSGISWSSGSMDYADSVKGRFTISRDNAKNSLYLQMNSLRTEDTALYYCAKAREVGDYYGMDVWGQGTTVTVSS[here about 100 residues without letters]
For the molecule B4, the “% Blocking” value was 11%.

B5: 12845B scFv (VH-VK) (scFv)
chain: EVQLVESGGGLVQPGGSLRLSCAASGFTVSNYEMNWVRQAPGKGLEWVSYISSSTSNIYYADSVKGRFTISRDNAENSLYLQMNSLRVEDTAVYYCVRDGIVVVPVGRGYYYYGLDVWGQGTTVTVSS[here about 100 residues without letters]
Consider B5, for which the “% Blocking” value stood at 18%.

B6: 12839B scFv (VH-VK) (scFv)
chain: QVQLVESGGGVVQPGRSLRLSCAASGFPFSNYVMYWVRQAPGKGLEWVALIFFDGKKNYHADSVKGRFTITRDNSKNMLYLQMNSLRPEDAAVYYCAKIHCPNGVCYKGYYGMDVWGQGTTVTVSS[here about 100 residues without letters]
Regarding B6, the “% Blocking” value turned out to be 23%.

B7: 69323 scFv (VH-VK) (scFv)
chain: EVQLVESGGGLVQPGRSLRLSCAASGFTFDDYAMHWVRQAPGKGLEWVSGISWNSGYIGYADSVKGRFTISRDNAENSLHLQMNSLRAEDTALYYCARGGSTLVRGVKGGYYGMDVWGQGTTVTVSS[here about 100 residues without letters]
On to B7, for which the “% Blocking” value was 7%.
